In patent US20110229560A1 (published 2011):

Molecular target: T1, HA-tagged NLRC5 (human NLRC5, full length) (human, UniProt Q86WI3 1-1866)
T1 construct: Expressed from pcDNA3.1 with an HA tag in transfected 293T cells; used in lysates for co-immunoprecipitation; General statements about NLRC5 in overexpression experiments are put on this molecule; also called HA-NLRC5
Test: co-IP (anti-Flag or anti-HA beads) and Western blot, FIG. 15

binding result: no binding
B1: TRIF (expressed in 293T cells) (other, UniProt Q8IUC6 1-712, looked up, not shown: small tags and cut ends)
chain: MACTGPSLPSAFDILGAAGQDKLLYLKHKLKTPRPGCQGQDLLHAMVLLKLGQETEARISLEALKADAVARLVARQWAGVDSTEDPEEPPDVSWAVARLYHLLAEEKLCPASLRDVAYQEAVRTLSSRDDHRLGELQDEARNRCGWDIAGDPGSIRTLQSNLGCLPPSSALPSGTRSLPRPIDGVSDWSQGCSLRSTGSPASLASNLEISQSPTMPFLSLHRSPHGPSKLCDDPQASLVPEPVPGGCQEPEEMSWPPSGEIASPPELPSSPPPGLPEVAPDATSTGLPDTPAAPETSTNYPVECTEGSAGPQSLPLPILEPVKNPCSVKDQTPLQLSVEDTTSPNTKPCPPTPTTPETSPPPPPPPPSSTPCSAHLTPSSLFPSSLESSSEQKFYNFVILHARADEHIALRVREKLEALGVPDGATFCEDFQVPGRGELSCLQDAIDHSAFIILLLTSNFDCRLSLHQVNQAMMSNLTRQGSPDCVIPFLPLESSPAQLSSDTASLLSGLVRLDEHSQIFARKVANTFKPHRLQARKAMWRKEQDTRALREQSQHLDGERMQAAALNAAYSAYLQSYLSYQAQMEQLQVAFGSHMSFGTGAPYGARMPFGGQVPLGAPPPFPTWPGCPQPPPLHAWQAGTPPPPSPQPAAFPQSLPFPQSPAFPTASPAPPQSPGLQPLIIHHAQMVQLGLNNHMWNQRGSQAPEDKTQEAE
